In all, about 81,000 sequences were measured (“one-hybrid fitness for binding parS DNA”: median about -0.17, highest 2% from about 0.51 on). The list shows a part of the results.
B1: Caulobacter ParB omega fusion; a variant is named by its letters at X, in order, B8GW30 (parent)
chain: MESVVVGEPGMSEGRRGLGRGLSALLGEVDAAPAQAPGEQLGGSREAPIEILQRNPDQPRRTFREEDLEDLSNSIREKGVLQPILVRPSPDTAGEYQIVAGERAWRAAQRAGLKTVPIMVRELDDLAVLEIGIIENVQRADLNVLEEALSYKVLMEKFERTQENIAQTIGKSXSHVANXMRLLXLPDEVQSYLVSGELTAXHARAIAAAADPVALAKQIIEGGLSVRETEALARKAPNLSAGKSKGGRPPRVKDTDTQALESDLSSVLGLDVSIDHRGSTGTLTITYATLEQLDDLCNRLTRGI

Variants of: B1
Assay: one-hybrid fitness for binding parS DNA (scaled: cognate 1, non-cognate 0); higher = stronger binding
Settings: with parS DNA site
Summary of the method: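 Selection: bacterial one-hybrid in E. coli USO, HIS3 reporter with the site 19 bp from the promoter, 48 hours at 37°C on M9-minus-histidine plus 0.1 mM IPTG and 5 mM 3-AT. Libraries were Caulobacter ParB with four randomised specificity codons, sequenced on Illumina before and after selection. Fitness is the rescaled log change in variant-to-wild-type read ratio, anchored to the cognate and non-cognate sites.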

one-hybrid fitness for binding parS DNA, 0.777:
RMRY

one-hybrid fitness for binding parS DNA, 0.947:
RMIG

one-hybrid fitness for binding parS DNA, 0.473:
RAGY

one-hybrid fitness for binding parS DNA, ≤ 0.2:
HISS
LFFG
DIVV
MWKR
YFHC
DVPP
ALID
MKKY
LSFF
ISTT
DHMG
VTKR
KGLV
QVQR
ASNV
ALHN
YATG
QRVG
ATEG
HIQT
ESWT
KDST
SIGL
KKVI
TNNT
WQHS
LRQC
KRMG
EQHR
MTSW
WTNG
RPRY
CARA
TVAC
CFIT
GFHG
TAIV
QEAP
VAKF
QQLA
ITNS
HYDR
KKPR
HEWF
HKCM
GCGC
FYSW
TMII
TIKR
TTHC
YNPY
LKEC
MWWA
LPYT
QSFL
SNAW
ADFC
CWSD
EDSL
LQMM
YIDC
GMLI
GEQY
PPQT
GTNA
HCMM
KNEP
MMTG
QMPE
NFNG
PMAN
FPNL
HDVT
MQQT
FRYS
LPWA
HHSI
KLCT
LCIM
AYQF
QVKI
NLED
IKQM
QYCV
QIDL
WSIT
SFMR
IEAV
YYTT
RILD
GRSM
TFYD
FDNY
YIKT
QLRT
NREM
ALIE
ECRA
SGND
LHQG
AMPK
ETRT
PMHN
LKTA
VPKL
MRGL
RFCQ
MPIT
WPPD
QHYS
MTVL
GMNW
QSWA
KQCT
LLRE
ELHR
QAPP
FGPR
QRPA
NYDG
GGDN
QRNK
PSPA
ARQE
DTGW
RTQE
QIIF
NPWK
DAFS
YDPP
KSIR
APLA
LKRR
NFTS
RWDI
SIES
PYML
ASNF
TCEI
GHGS
SYNC
PDVC
QCVC
GRFS
IARD
QRNF
LHAE
VSRK
LMEY
TDHP
NHFV
NDMY
PYNW
QRWL
PVCG
IFLC
QTIA
FITT
TIKP
IECV
EPRY
QNYV
KWSA
CYET
CPNS
LCCE
VQEA
TQQT
SMGS
EDPS
KVHM
TNTL
NINK
GDYT
SRLM
RQFQ
YRKM
RFLW
DLQL
MLVH
IPFG
MCMT
WFTF
PHRV
AVHA
SRFT
ITHS
QARG
FWAR
PQGG
QYDD
TTTI
QDQW
IYHA
RERM
ALLC
DTYL
LGHC
RWKD
KETI
QYDI
DANT
TNWP
QSAH
GTET
HMQG
NMNL
AAGV
WTGF
EQIL
VSVM
GDKG
LHGT
TNHM
QDFN
LWVV
EAQE
STFS
HGIV
NLMQ
MKSD
YHSA
WACR
TRFR
KSCD
SVTE
EYQG
HPNA
GRNG
AWYP
ECLN
RMEH
APKG
CSTV
ICNV
DGQG
RDGF
VEYG
NGTA
ERHT
HTKS
KLPR
IMSY
GSVL
KLYF
NDYC
LLCR
EYKC
SIQT
RDLT
RQFD
MEPG
QAWY
KYSG
AHTC
MCAS
DAQT
GRQS
TQAC
RGLY
HVSN
HKNF
PGVD
STNS
RGPL
ETRF
SLEG
ATGQ
LCIY
PWTT
LMRP
YVQS
NDST
GDNT
ARVY
AEVT
YVTV
RPQF
APFV
FWTN
YEEK
DAPI
ALWF
RSDI

one-hybrid fitness for binding parS DNA, 0.966:
RVCC

one-hybrid fitness for binding parS DNA, 0.993:
RILG

one-hybrid fitness for binding parS DNA, 0.661:
RIGA

one-hybrid fitness for binding parS DNA, 0.799:
RHFC

one-hybrid fitness for binding parS DNA, 0.346:
MEPH

one-hybrid fitness for binding parS DNA, 0.921:
RQNS

one-hybrid fitness for binding parS DNA, 0.995:
RLCC

one-hybrid fitness for binding parS DNA, 0.247:
RCHW

one-hybrid fitness for binding parS DNA, 0.223:
RMDF
KCWK

one-hybrid fitness for binding parS DNA, 0.28:
RARF

one-hybrid fitness for binding parS DNA, 0.33:
RFKF

one-hybrid fitness for binding parS DNA, 0.238:
RGHA

one-hybrid fitness for binding parS DNA, 0.889:
RYHT

one-hybrid fitness for binding parS DNA, 0.262:
RMCH
VKCS

one-hybrid fitness for binding parS DNA, 0.534:
RGCC

one-hybrid fitness for binding parS DNA, 0.345:
RCTM

one-hybrid fitness for binding parS DNA, 0.239:
RLTW
